{
  "source": "the supplement of paper PMC12889115",
  "note": "The list shows a part of the results. Single values are uncertain, as repeats are few or missing.",
  "data": [
    {"tested_on": "Salmonella enterica serovar Typhimurium SL1344", "experiment": "bacterial growth OD600 after 18 h in MHB with 0.5 µg/mL polymyxin B; higher = more bacterial growth (less inhibition)", "settings": "25 µM; polymyxin B 0.5 µg/mL; system: broth", "procedure": "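Secondary screen of the 553 primary hits at 25 µM. (i) S. Typhimurium SL1344 grown in Mueller-Hinton broth with 0.5 µg/mL polymyxin B, OD600 read after 18 h. (ii) SAFIRE assay: RAW 264.7 macrophages infected with S. Typhimurium sifB::gfp (MOI 30); compound added 2 h post-infection; cells fixed at 18 h; GFP-positive pixel fraction per macrophage imaged by confocal microscopy and expressed as % of DMSO control.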", "values": [
      {"molecule": "CN(Cc1ccccc1C(F)(F)F)C(=O)CCC1(Cc2cccc3ccccc23)CCC(=O)N1", "note": "(stereo unspecified);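 note: polymyxin B level opens the outer membrane while sparing the inner membrane, with novobiocin wells as reference growth inhibitor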", "bacterial growth OD600": -0.003},
      {"molecule": "O=C(NCC1OCCc2ccccc21)c1coc(COc2ccccc2)n1", "note": "(stereo unspecified)", "bacterial growth OD600": 0.19},
      {"molecule": "c1ccc(CCCc2noc(-c3ccc(N4CCCO4)nc3)n2)cc1", "bacterial growth OD600": 0.003},
      {"molecule": "Cc1cc(C)n(CC(=O)N(Cc2ccncc2)Cc2cccc(OCCc3ccc(F)cc3)c2)n1", "bacterial growth OD600": 0.001},
      {"molecule": "CCOC(=O)C1(C/C=C/c2ccccc2)CCCN(C(=O)CCn2ccc(C)n2)C1", "note": "(stereo unspecified)", "bacterial growth OD600": 0.004},
      {"molecule": "COC(=O)c1ccc(CN2CCOc3ccc(C(C)(O)COc4ccccc4)cc3C2)cc1", "note": "(stereo unspecified)", "bacterial growth OD600": -0.013}
    ]}
  ]
}
